Reference: PubChem BioAssay AID504333 (National Center for Advancing Translational Sciences (NCATS), 2011)
In all, about 360,000 compounds went through this assay and about 16,000 (4.4%) were called active. The inconclusive results got no clear call from the source; some entries with a clear call stand among them for comparison. The call rests on the fitted dose curve; in most records, active means well fitted inhibition curve with a large enough effect; inconclusive means small, poorly fitted or top-dose-only effect; inactive means no such curve, though single readings can be large or run the other way. Potencies of inconclusive entries are doubtful fits and often do not repeat.
Further: nearly all actives have a fitted effect of over 60% in size.
On the % scale 0 is the no-effect control and ±100 the full control effect; potency means the concentration at half of the fitted maximal effect; tags describe the fitted curve by direction and shape.

These molecules were tested against Bromodomain adjacent to zinc finger domain protein 2B (Homo sapiens) (UniProt Q9UIF8) (assay: qHTS Assay for Inhibitors of BAZ2B). Conditions: AlphaScreen BAZ2B-H3K14Ac peptide displacement; activity change, negative = inhibition: at 114 µM (top of the series).
UniProt Q9UIF8, sequence (Q9UIF8 whole entry, looked up, the tested form may be a part): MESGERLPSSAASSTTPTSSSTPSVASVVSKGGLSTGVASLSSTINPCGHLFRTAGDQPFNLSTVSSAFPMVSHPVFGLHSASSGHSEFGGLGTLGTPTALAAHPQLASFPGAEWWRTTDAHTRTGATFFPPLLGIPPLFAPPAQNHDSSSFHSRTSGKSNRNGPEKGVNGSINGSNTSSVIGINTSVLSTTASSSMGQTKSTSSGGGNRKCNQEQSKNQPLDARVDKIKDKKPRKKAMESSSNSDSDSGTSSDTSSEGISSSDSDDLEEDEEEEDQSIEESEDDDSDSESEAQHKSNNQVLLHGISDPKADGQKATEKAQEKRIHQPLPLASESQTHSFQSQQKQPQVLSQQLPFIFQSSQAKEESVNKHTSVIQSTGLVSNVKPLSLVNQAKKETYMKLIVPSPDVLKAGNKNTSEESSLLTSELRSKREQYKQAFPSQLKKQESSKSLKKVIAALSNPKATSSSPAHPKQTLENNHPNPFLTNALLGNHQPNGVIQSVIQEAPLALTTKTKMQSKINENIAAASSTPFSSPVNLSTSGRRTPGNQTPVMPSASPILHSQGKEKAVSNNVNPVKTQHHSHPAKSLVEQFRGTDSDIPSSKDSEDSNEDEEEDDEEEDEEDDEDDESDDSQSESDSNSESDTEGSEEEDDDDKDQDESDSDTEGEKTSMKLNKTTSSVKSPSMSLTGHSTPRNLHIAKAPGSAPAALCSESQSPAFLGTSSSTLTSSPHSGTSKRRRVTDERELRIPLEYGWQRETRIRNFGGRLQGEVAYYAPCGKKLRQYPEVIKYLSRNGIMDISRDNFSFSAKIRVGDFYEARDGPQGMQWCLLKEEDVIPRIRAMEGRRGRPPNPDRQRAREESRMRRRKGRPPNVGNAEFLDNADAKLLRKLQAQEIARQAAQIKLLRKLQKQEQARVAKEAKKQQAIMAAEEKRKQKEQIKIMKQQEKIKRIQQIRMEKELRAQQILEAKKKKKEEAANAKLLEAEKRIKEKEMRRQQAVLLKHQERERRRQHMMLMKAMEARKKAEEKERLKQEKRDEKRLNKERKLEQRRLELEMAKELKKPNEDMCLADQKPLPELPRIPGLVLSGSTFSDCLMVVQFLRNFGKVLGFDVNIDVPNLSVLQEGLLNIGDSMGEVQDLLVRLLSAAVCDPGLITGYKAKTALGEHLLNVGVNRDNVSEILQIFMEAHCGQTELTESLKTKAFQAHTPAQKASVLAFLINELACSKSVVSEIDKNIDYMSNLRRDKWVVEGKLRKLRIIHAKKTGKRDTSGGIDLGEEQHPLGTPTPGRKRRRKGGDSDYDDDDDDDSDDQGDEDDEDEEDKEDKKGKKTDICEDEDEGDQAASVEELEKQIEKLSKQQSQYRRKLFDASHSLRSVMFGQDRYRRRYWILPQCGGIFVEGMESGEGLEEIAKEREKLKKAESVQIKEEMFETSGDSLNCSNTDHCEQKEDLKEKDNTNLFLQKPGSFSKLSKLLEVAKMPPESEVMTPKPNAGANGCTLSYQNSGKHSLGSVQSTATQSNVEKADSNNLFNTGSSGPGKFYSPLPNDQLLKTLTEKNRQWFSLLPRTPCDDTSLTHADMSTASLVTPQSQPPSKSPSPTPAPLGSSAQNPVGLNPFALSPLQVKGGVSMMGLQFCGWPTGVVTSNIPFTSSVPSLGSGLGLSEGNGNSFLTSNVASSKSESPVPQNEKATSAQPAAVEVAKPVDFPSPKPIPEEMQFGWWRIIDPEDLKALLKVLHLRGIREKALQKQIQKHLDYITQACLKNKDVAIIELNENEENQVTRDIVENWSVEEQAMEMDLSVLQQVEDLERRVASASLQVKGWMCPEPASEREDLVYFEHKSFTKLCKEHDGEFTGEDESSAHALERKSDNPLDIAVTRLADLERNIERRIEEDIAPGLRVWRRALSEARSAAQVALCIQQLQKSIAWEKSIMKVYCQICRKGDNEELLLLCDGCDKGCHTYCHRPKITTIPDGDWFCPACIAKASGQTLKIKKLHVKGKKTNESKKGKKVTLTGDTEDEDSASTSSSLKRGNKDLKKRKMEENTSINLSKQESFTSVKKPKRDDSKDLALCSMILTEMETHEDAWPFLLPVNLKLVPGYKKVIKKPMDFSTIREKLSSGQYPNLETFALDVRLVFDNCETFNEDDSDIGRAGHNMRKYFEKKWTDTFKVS
Outline: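 AlphaScreen displacement: compounds (up to 110uM) incubated 30 min at room temperature with a preformed 50 nM BAZ2B/50 nM biotinylated H3K14Ac peptide complex in PBS pH 7.4 with Tween-20. Donor and acceptor beads at 10 ug/mL final added, 20 min light-protected before reading.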
In the case of `Fc1ccc(-c2csc3ncnc(N4CCN(c5ccccc5)CC4)c23)cc1`, the Potency is reported as inconclusive: 50.1 µM [inhibitor, partial curve, poor fit].
With `Cc1cc(Nc2cccc(Cl)c2)nc(NCc2ccccc2)n1` the “activity change, negative = inhibition” value was inactive: -1.07%.
In the case of `O=c1[nH][nH]c(-c2ccccc2)c1C=Nc1ccc(C(F)(F)F)cc1`, the Potency is reported as inconclusive: 79.4 µM [inhibitor, single point].
`Cc1nnc(N(C(=O)c2cnccn2)c2ccccc2)s1` was tested, and the “activity change, negative = inhibition” value was inactive: -4.1%.
`CCc1ccccc1NC(=O)N[C@H](C(=O)O)C(C)C` was tested, and the Potency was inconclusive: 89.1 µM [inhibitor, single point].
With `Cc1cc(-c2ccc(C(C)C)c(S(=O)(=O)N3CCN(c4ccccc4)CC3)c2)on1` the Potency was inconclusive: 35.5 µM [inhibitor, partial curve].
`COc1ccc(-n2c(C)cc(/C=C3\SC(=S)N(Cc4ccco4)C3=O)c2C)cc1` was tested, and the Potency was inconclusive: 44.7 µM [inhibitor, partial curve].
`Cc1cc(Cl)ccc1N=C1N=C(N)c2ccccc21` was tested, and the “activity change, negative = inhibition” value was inactive: -33.5%.
For `O=C(Nc1cccc(Oc2ccc(C(=O)O)c(C(=O)O)c2)c1)c1ccc(-c2ccccc2)cc1`, the Potency was active: 50.1 µM.
`C/C(=N\N(c1ccccc1)c1ccccc1)c1ccc(O)cc1` was tested, and the Potency was active: 50.1 µM.
For `CCSc1cnn(-c2ccccc2)c(=O)c1SCC`, the “activity change, negative = inhibition” value was inactive: -3.33%.
For `CC1CCCCN1S(=O)(=O)c1ccc(S(=O)(=O)N2CCCC2)cc1` (stereo not given), the “activity change, negative = inhibition” value was inactive: -12.1%.
`C=CCc1ccc(OCCOCCNCCCC)c(OC)c1` was tested, and the Potency was active: 50.1 µM.
With `NC(=O)C[n+]1cccc(C(=O)Nc2ccccc2)c1` the “activity change, negative = inhibition” value was inactive: -30.2%.
In the case of `O=C(Nc1ccc(Oc2ccccc2)cc1)c1ccco1`, the Potency is reported as inconclusive: 89.1 µM [inhibitor, single point].
For `Clc1cccc(CN2CCCCCC2)c1`, the Potency was inconclusive: 89.1 µM [inhibitor, single point].
In the case of `O=C(Nc1ccc2c(c1)OCO2)c1cccc2c1C(=O)N(Cc1cccnc1)C2`, the Potency is reported as active: 50.1 µM.
With `CC1(CCc2ccccc2)NC(=S)N(c2ccccc2)N1` (stereo not given) the Potency was active: 50.1 µM.
In the case of `O=C1[C@@H]2Cc3c([nH]c4ccccc34)C(c3ccccc3)N2C(=O)CN1C1CC1` (stereo not given in full), the Potency is reported as inconclusive: 89.1 µM [inhibitor, single point].
With `COc1ccc(C)cc1Nc1n[n+](-c2ccccc2)c(-c2c(Cl)cccc2Cl)s1` the Potency was active: 15.8 µM.
With `COc1ccc(NC(=O)C/C(C)=N/NC(=O)C(=O)NC(C)C)c(OC)c1` the Potency was inconclusive: 89.1 µM [inhibitor, single point].
`Cc1cc(C)nc(NS(=O)(=O)c2ccc(NC(=O)c3ccc(S(=O)(=O)N4CC(C)OC(C)C4)cc3)cc2)n1` (stereo not given) was tested, and the “activity change, negative = inhibition” value was inactive: 4.36%.
In the case of `C=Cc1ccc(Cn2c(C)c(CNCCc3ccccc3C)c(C(=O)O)c2C)cc1`, the Potency is reported as inconclusive: 79.4 µM [inhibitor, partial curve].
With `Cc1ccc2oc(=O)c3cnn(CC(=O)NC4CCC(C)CC4)c3c2c1` (stereo not given) the Potency was inconclusive: 89.1 µM [inhibitor, single point].
`Cc1cccc(C(=O)Nc2nnc(Cc3ccccc3)s2)c1` was tested, and the “activity change, negative = inhibition” value was inactive: 11.6%.
For `C=CCN1C=CC=C/C1=C1\SC(=S)N(C)C1=O`, the Potency was inconclusive: 79.4 µM [inhibitor, partial curve].
For `CN(C)c1nc(N)nc(CSc2nnnn2-c2ccc(C(=O)O)cc2)n1`, the Potency was inconclusive: 100 µM [inhibitor, single point].
`COc1cc(/C=N/NC(=O)C(N)=O)ccc1OC(=O)c1cccs1` was tested, and the “activity change, negative = inhibition” value was inactive: -7.19%.
With `CCS(=O)(=O)C1=NN2C(=N)/C(=C\c3ccc(OS(=O)(=O)c4ccccc4)cc3)C(=O)N=C2S1` the Potency was active: 50.1 µM.
`O=C1C=C(O)c2cccc(O)c2C1=O` was tested, and the Potency was inconclusive: 70.8 µM [inhibitor, single point].
For `COc1ccc(O)c(C(=O)c2cc(C#N)c(=O)n(-c3ccc(Cl)cc3)c2)c1`, the Potency was inconclusive: 44.7 µM [inhibitor, partial curve].
In the case of `Cc1ccc(NC(=O)c2cc([N+](=O)[O-])ccc2NCc2cccnc2)cc1Cl`, the Potency is reported as inconclusive: 22.4 µM [inhibitor, full curve, poor fit].
With `Cc1ccc(CN(C(=O)c2ccccc2F)c2ccccn2)o1` the Potency was inconclusive: 50.1 µM [inhibitor, partial curve].
With `CC(=O)c1ccc2c(c1)C1C=CCC1C(c1cc3c(cc1Br)OCO3)N2` (stereo not given) the “activity change, negative = inhibition” value was inactive: -32.3%.
`CCc1cc2c(=O)n(Cc3ccco3)c(SCC(=O)N(C)C3CCS(=O)(=O)C3)nc2s1` (stereo not given) was tested, and the “activity change, negative = inhibition” value was inactive: -2.16%.
With `O=C(c1cccn2c(=O)c3cc(Cl)ccc3nc12)N1CCN(c2ccccc2F)CC1` the “activity change, negative = inhibition” value was inactive: 5.42%.
In the case of `Cc1cc(Br)c2[nH]cc(CCNC(=O)c3ccco3)c2c1`, the Potency is reported as inconclusive: 89.1 µM [inhibitor, single point].
For `Cn1c(N)c(C(=O)COC(=O)c2nc(Cl)ccc2Cl)c(=O)n(C)c1=O`, the “activity change, negative = inhibition” value was inactive: -2.88%.
For `CC(C)(C)N1C(=O)Cc2c1nc(N)c1c(N)nc(N3CCCCC3CO)c(C#N)c21` (stereo not given), the Potency was active: 39.8 µM.
In the case of `CN(C)c1ccc(CNc2ccccn2)cc1`, the Potency is reported as active: 50.1 µM.
In the case of `O=C(NCCNC(=O)c1ccccc1O)c1ccccc1O`, the Potency is reported as inconclusive: 89.1 µM [inhibitor, single point].
For `OCCNc1cc(-n2nc(-c3ccccc3)cc2-c2ccccc2)ncn1`, the Potency was inconclusive: 79.4 µM [inhibitor, single point].
`COc1cc(CN2CCN(Cc3ccc(C(F)(F)F)cc3)CC2)cc(OC)c1OC` was tested, and the Potency was active: 17.8 µM.
`CCOC(=O)C1(C)/C(=N/Nc2ccc(S(N)(=O)=O)cc2)C(=O)C(=O)N1c1ccccc1` (stereo not given) was tested, and the “activity change, negative = inhibition” value was inactive: -26.2%.
With `CCC(C)(C)C1CCc2[nH]nc(C(=O)O)c2C1` (stereo not given) the Potency was inconclusive: 89.1 µM [inhibitor, single point].
For `CCOc1ccc(CN2CCC(Cc3ccccc3)CC2)cc1`, the Potency was inconclusive: 89.1 µM [inhibitor, single point].
`Cc1n[nH]c(C)c1S(=O)(=O)N1CCCC(C(=O)NC2CCCc3ccccc32)C1` (stereo not given) was tested, and the “activity change, negative = inhibition” value was inactive: 6.36%.
`COc1ccc(-c2ccc3c(c2)c(-c2cccs2)c(-c2cc(OC)cc(OC)c2)n3C)cc1` was tested, and the Potency was inconclusive: 89.1 µM [inhibitor, single point].
With `COc1ccc(-c2c3c(=O)n(C)c(=O)n(C)c3cn2C2CCCCC2)cc1` the Potency was active: 50.1 µM.
`CCOC(=O)c1cccc(Nc2cc(-c3ccccc3)ncn2)c1` was tested, and the Potency was active: 50.1 µM.
For `CCOC(=O)c1c(C)[nH]c(CCC(=O)NCc2ccccc2Cl)c1C`, the “activity change, negative = inhibition” value was inactive: -14.4%.
For `CC(=O)c1sc(NC(=O)CCCOc2ccc(Cl)cc2)nc1C`, the Potency was active: 79.4 µM.
For `CSCc1nc2sc(C(=O)Nc3nc(C)cs3)c(C)c2c(=O)[nH]1`, the Potency was inconclusive: 79.4 µM [inhibitor, single point].
With `Cc1ccc2nc(-c3sc4nc(C)ccc4c3N)[nH]c2c1` the “activity change, negative = inhibition” value was inactive: 0.572%.
In the case of `Oc1ccc(NCc2ccccc2OCc2ccccc2F)cc1`, the Potency is reported as active: 44.7 µM.
`Cc1ccc(CN(C(=O)COc2ccc(Br)cc2)C2CCS(=O)(=O)C2)o1` (stereo not given) was tested, and the Potency was inconclusive: 28.2 µM [inhibitor, single point].
In the case of `Cc1ccc(OCCCCn2cnc3ccccc32)c(C)c1`, the Potency is reported as active: 25.1 µM.
`Cc1ccc(/C=C/C(=O)Nc2ccc([N+](=O)[O-])c(NC(=O)/C=C/c3ccc(C)o3)c2)o1` was tested, and the Potency was inconclusive: 50.1 µM [inhibitor, single point].
In the case of `COc1ccc(-c2csc3ncnc(N4CCN(Cc5ccccc5)CC4)c23)cc1`, the Potency is reported as inconclusive: 14.1 µM [inhibitor, full curve, poor fit].
With `CCn1nc(C)c(C(=O)Nc2cc(Oc3ccc(Cl)cc3)cc([N+](=O)[O-])c2)c1C` the Potency was inconclusive: 50.1 µM [inhibitor, partial curve].
`COC(=O)C1=C(NC(=O)C2CCCCC2)CCS1` was tested, and the Potency was inconclusive: 44.7 µM [inhibitor, partial curve].
With `CC1CCCCN1S(=O)(=O)c1ccc(C(=O)Nc2nnc(-c3cccs3)o2)cc1` (stereo not given) the Potency was inconclusive: 70.8 µM [inhibitor, single point].
`c1ccc(CCN(Cc2ccccc2)Cc2nc(C3CC3)no2)cc1` was tested, and the “activity change, negative = inhibition” value was inactive: 99.4%.
For `O=C(c1cccs1)N1CCN(Cc2cccc([N+](=O)[O-])c2)CC1`, the Potency was active: 28.2 µM.
With `COC(=O)/C=C(\C)NC(=O)c1ccc(F)cc1` the Potency was inconclusive: 100 µM [inhibitor, single point].
`CSc1nc(Cl)cc(N2CCOCC2)n1` was tested, and the Potency was inconclusive: 89.1 µM [inhibitor, single point].
In the case of `CCOC(=O)CCCCC(=O)c1[nH]c(=O)[nH]c1CSc1nc2ccccc2[nH]1`, the Potency is reported as inconclusive: 89.1 µM [inhibitor, single point].
`C/C=C/c1cc(CN2CCN(c3ccc(OC)cc3)CC2)c(O)c(OC)c1` was tested, and the Potency was active: 28.2 µM.
`Cc1ccc(Cn2cc(S(=O)(=O)c3cccc(Cl)c3)c(=O)c3cc(F)c(N4CCOCC4)cc32)cc1` was tested, and the “activity change, negative = inhibition” value was inactive: -0.745%.
For `CCOc1ccc(C2NC(=O)c3c(COC)cc(C)nc3N2Cc2ccccc2)cc1OC` (stereo not given), the “activity change, negative = inhibition” value was inactive: -12.6%.
For `COC(=O)c1c(NS(=O)(=O)c2ccc3ccccc3c2)sc2c1CCCC2`, the Potency was inconclusive: 70.8 µM [inhibitor, single point].
With `O=C(O)c1ccc(/C=N/Nc2cccc(C(F)(F)F)c2)cc1` the Potency was inconclusive: 39.8 µM [inhibitor, partial curve].
In the case of `COc1cccc(/C=N/Nc2ccc(S(=O)(=O)O)cc2)c1O`, the Potency is reported as inconclusive: 89.1 µM [inhibitor, single point].
`S=C(NCCc1ccccc1)Nc1cccc2cnccc12` was tested, and the Potency was inconclusive: 89.1 µM [inhibitor, single point].
In the case of `Cc1c(Cl)cnc(NC(=O)COC(=O)c2ccncc2)c1Cl`, the Potency is reported as inconclusive: 79.4 µM [inhibitor, single point].
